# Data: article PMC4336329 (PLoS ONE, 2015)
# Out of some 310,000 compounds screened, about 14,000 (4.5%) showed an effect of 50% or more. The effect is printed as a negative number. This is one part of the list.
# Molecular target: human ether-à-go-go-related gene (hERG) potassium channel (human, UniProt Q12809)
# Assay: primary screen, population patch clamp on CHO cells stably expressing hERG
# 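Also: peak tail current of the secondary pulse compared with the same well before compound.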
# human ether-à-go-go-related gene (hERG) potassium channel, sequence (Q12809 whole entry, looked up): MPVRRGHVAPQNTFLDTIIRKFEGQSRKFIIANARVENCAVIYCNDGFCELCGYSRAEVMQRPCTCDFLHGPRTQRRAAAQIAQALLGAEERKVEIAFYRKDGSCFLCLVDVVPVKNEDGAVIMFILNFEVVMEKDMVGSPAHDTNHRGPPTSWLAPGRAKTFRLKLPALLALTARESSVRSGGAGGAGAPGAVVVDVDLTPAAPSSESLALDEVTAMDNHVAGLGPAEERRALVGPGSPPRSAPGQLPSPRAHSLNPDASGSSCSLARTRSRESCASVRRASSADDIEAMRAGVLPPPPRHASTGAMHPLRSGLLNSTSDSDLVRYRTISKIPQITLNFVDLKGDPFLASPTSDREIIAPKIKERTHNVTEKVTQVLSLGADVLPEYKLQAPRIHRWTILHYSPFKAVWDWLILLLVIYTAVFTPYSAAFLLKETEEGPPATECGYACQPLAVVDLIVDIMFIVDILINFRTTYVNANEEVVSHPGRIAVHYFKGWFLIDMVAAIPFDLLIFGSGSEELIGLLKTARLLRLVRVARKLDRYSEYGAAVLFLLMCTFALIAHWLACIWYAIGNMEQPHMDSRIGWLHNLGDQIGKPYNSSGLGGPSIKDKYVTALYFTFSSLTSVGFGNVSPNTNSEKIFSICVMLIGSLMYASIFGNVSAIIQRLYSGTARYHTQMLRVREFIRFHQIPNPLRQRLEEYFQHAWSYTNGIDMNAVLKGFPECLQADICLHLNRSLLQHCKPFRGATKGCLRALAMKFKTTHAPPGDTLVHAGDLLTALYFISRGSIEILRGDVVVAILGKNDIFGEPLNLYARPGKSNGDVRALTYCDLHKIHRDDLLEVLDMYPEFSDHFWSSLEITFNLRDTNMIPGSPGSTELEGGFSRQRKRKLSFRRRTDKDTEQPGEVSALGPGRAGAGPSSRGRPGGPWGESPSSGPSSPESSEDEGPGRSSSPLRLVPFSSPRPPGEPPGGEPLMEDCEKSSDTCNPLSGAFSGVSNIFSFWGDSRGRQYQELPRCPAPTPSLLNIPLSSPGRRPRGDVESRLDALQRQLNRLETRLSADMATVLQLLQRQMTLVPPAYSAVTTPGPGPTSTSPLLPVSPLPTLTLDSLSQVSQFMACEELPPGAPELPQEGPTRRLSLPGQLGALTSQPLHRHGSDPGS
row,Compound,"hERG current change (%, negative = inhibition) at 10uM"
1,O=C1/C(=C\c2ccc3c(c2)OCO3)CCC/C1=C/c1ccc2c(c1)OCO2,4.71%
2,Cc1cc([N+](=O)[O-])cc2c1NC(=O)C2(O)N1CCCC(C)C1 (stereo not drawn),-0.731%
3,COC(=O)c1cccc(Cn2nc(C)c([N+](=O)[O-])c2C)c1,27.3%
4,COc1ccc(S(=O)(=O)N2CCC(C(=O)Nc3cc(Cl)ccc3N3CCOCC3)CC2)cc1OC,3.97%
5,CC(=O)Oc1ccc2occ(C(=O)c3cccs3)c2c1,7.7%
6,CCCN(C(=O)COC(=O)c1cc(CC)c(C)s1)c1c(N)n(Cc2ccccc2)c(=O)[nH]c1=O,18.4%
7,COC(=O)c1ccc(CN2CCc3ccccc32)cc1,14.8%
8,COc1ccc(NC(=O)C2CC(c3c(F)cccc3Cl)=NO2)cc1OC (stereo not drawn),10.8%
9,C/C(=N\N1CCN(c2ccc(Cl)cc2)CC1)c1cccc([N+](=O)[O-])c1,-12.4%
10,CS(=O)(=O)Nc1cccc(C2=NN(S(=O)(=O)c3ccccc3)C(c3cccs3)C2)c1 (stereo not drawn),-1.94%
11,CN(C(=O)COC(=O)COc1ccccc1F)C1CCS(=O)(=O)C1 (stereo not drawn),2.55%
12,CC(=O)Nc1ccc(-n2nnnc2SCC(=O)NC2CCCC2)cc1,3.75%
13,CC(Sc1nnc(-c2ccco2)n1N)C(=O)NCC1CCCO1 (stereo not drawn),1.53%
14,COCCNC(=O)C(=O)NNS(=O)(=O)c1ccc(Cl)cc1,30.9%
15,COc1ccccc1CCC(=O)Nc1cccc(S(=O)(=O)N2CCOCC2)c1,-13.6%
16,COC(=O)c1ccccc1NC(=O)COC(=O)c1cccnc1,6.42%
17,CCOC(=O)C1CCCN(C2CCN(Cc3nc(Cc4ccccc4)no3)CC2)C1 (stereo not drawn),-60.3%
18,Cc1ccc(-c2csc(Nc3ccc(S(N)(=O)=O)cc3)n2)o1,15.5%
19,Nc1n[nH]c(N)c1N=Nc1cccc(C(F)(F)F)c1,4.44%
20,O=C(CN1C(=O)N/C(=C\c2ccccc2OCc2ccc(C(=O)O)cc2)C1=O)Nc1ccc(F)cc1,12.3%
21,COc1ccc(-c2cc(N3C(=O)Nc4ccccc4N3O)n[nH]2)cc1,4.35%
22,CN(C(=O)CSc1nc2ccccc2c(=O)n1-c1ccc(F)cc1)C1CCS(=O)(=O)C1 (stereo not drawn),-12.4%

row,Compound,"hERG current change (%, negative = inhibition) at 10uM"
1,O=C(Nc1c2c(nn1-c1ccc(F)cc1)CS(=O)(=O)C2)C1CCCC1,18.1%
2,Cc1nn(Cc2ccc(C(=O)Nc3nccs3)cc2)c(C)c1Cl,22.3%
3,COC(=O)C1=C(C(=O)OC)[C@@H]2N(C)c3ccc(OC)cc3[C@@]23C[C@@H](C(=O)OC)N(C(=O)NCCBr)C3=N1,-32.9%
4,CCCc1nc2ccccc2n1CCOC,21.8%
5,COC(=O)CN1C(=S)N(c2ccc(F)cc2)C(=O)C1CC(=O)Nc1ccc(OC)cc1 (stereo not drawn),2.98%
6,CCN(C(=O)CSc1nnc(Nc2cccc(C)c2C)s1)C1CCS(=O)(=O)C1 (stereo not drawn),-29.3%
7,CC(C(=O)Nc1ccc(Br)cc1)N(C)CC(=O)NCc1ccco1 (stereo not drawn),-31.3%
8,CCN(c1ccccc1)S(=O)(=O)c1ccc(Cl)c(C(=O)O)c1,13.7%
9,Cc1cc(-c2nnc(CCC(=O)N(C)CCc3ccccc3)o2)no1,5.71%
10,CCN(CC)CCCNC(=O)c1cc(-c2ccc3c(c2)OCO3)on1,-18.8%
11,O=C(CSc1ccc(Br)cc1)NCC1CCCO1 (stereo not drawn),28.1%
12,O=C(CN1CCN(Cc2ccccc2)CC1)Nc1nnc(C(F)(F)F)s1,17.6%
13,Cc1ccccc1C(=O)NC1CC2CCC(C1)N2Cc1ccccc1 (stereo not drawn),-25%
14,COc1cccc(CN2C(=O)CCC2(C)C(=O)NC2CCCCCC2)c1 (stereo not drawn),-11.7%
15,O=C(Nc1cccnc1Cl)c1cc(-c2cccc(Cl)c2)on1,5.57%
16,CC(NC(=O)Nc1ccc([N+](=O)[O-])cc1)C(c1ccccc1)N1CCOCC1 (stereo not drawn),-11%
17,COC(=O)c1cc(S(=O)(=O)NCc2cccc(OC)c2)cn1C,-12.7%
18,O=C(Cc1ccccc1)Nc1ccc(NC(=O)C2CC2)nc1,5.56%
19,O=C(CN1C(=O)NC(c2ccccc2)(c2ccccc2)C1=O)Nc1ccc2[nH]c(=O)[nH]c2c1,6.01%
20,O=C(CCS(=O)(=O)c1cc2c(cc1Cl)NC(=O)CO2)NCCc1ccccc1,10.6%
21,CC(C)Cc1nnc(NC(=O)CCC(=O)N2CCN(c3ccccc3F)CC2)s1,17%
22,CCn1c(CSc2nc3ccccc3s2)nnc1SCC(N)=O,-6.87%

row,Compound,"hERG current change (%, negative = inhibition) at 10uM"
1,Cl.N=c1sccn1CC(=O)N1CCc2ccccc21,-8.84%
2,O=C1OCCC1Sc1nc2ccccc2n1Cc1ccccc1 (stereo not drawn),-46.3%
3,CCOC(=O)c1c(N2C(=O)Nc3cc(Cl)c(Cl)cc3N2O)sc2c1CCCCC2,7%
4,CCOC(=O)C(NC(=O)c1cccc(Cl)c1)(Nc1sc2c(c1C(N)=O)CCC2)C(F)(F)F (stereo not drawn),-25%
5,CCN1CCN(CC(=O)Nc2nc3ccc(C)cc3s2)CC1,-34.5%
6,O=C(Nc1cc(S(=O)(=O)N2CCOCC2)ccc1OCC(F)(F)F)c1ccc(N2CCCC2=O)cc1,-3.15%
7,Cc1cccn2c(=O)c(C=O)c(Cl)nc12,13.2%
8,Cc1ccc(-c2cc(C(F)(F)F)n3nc(C(=O)Nc4ccon4)cc3n2)cc1C,-6.47%
9,O=[N+]([O-])c1cc(F)c(N2CCCC2)cc1N1CCNCC1,-8.28%
10,CCOC(=O)c1cn(Cc2ccc(C)cc2)c2cc(F)ccc2c1=O,-10.9%
11,Cc1ccccc1-c1nc(CS(=O)(=O)CC(=O)NCCCN2CCCC2=O)c(C)o1,3.49%
12,O=C(NCCCn1ccnc1)c1cn(-c2ccccc2)nc1-c1ccccc1,-47.1%
13,CCN(CC(=O)NC(C)(C)C)C(=O)C(c1ccccc1)c1ccccc1,23.5%
14,Cc1ccccc1/C(N)=N/OC(=O)c1ccc(F)cc1,16.4%
15,O=C(Nc1nccs1)C(c1ccccc1)N1CCCCC1 (stereo not drawn),-4.97%
16,O=C(Nc1ccc(N2CCCCCC2)cc1)c1ccc[nH]1,-15.6%
17,O=C(Nc1ccccc1C(=O)N1CCN(Cc2ccccc2)CC1)c1ccccn1,-26.1%
18,O=C(COc1ccccc1[N+](=O)[O-])N1CCN(c2ccccn2)CC1,-7.33%
19,CCCN(Cc1ccccc1)C(=S)NC(=O)c1ccccc1[N+](=O)[O-],18.6%
20,O=C(Nc1cc2c(oc1=O)CCCC2=O)c1ccc(Cl)cc1,-11.8%
21,CC(C)(C)OC(=O)N1CC=C2C(C#N)=C(N)C(C#N)(C#N)C(c3cccs3)C2C1 (stereo not drawn),12.4%
22,Cc1ccc(S(=O)(=O)N2CCOCC2)cc1C(=O)Nc1c(C)n(C)n(-c2ccccc2)c1=O,9.5%

row,Compound,"hERG current change (%, negative = inhibition) at 10uM"
1,Cc1cc2nc3c(nc2cc1C)C1(C(=O)O)CCC3(C)C1(C)C (stereo not drawn),3.15%
2,N#C/C(=C\C=C\c1ccccc1)C(=O)N1CCCC1,16.6%
3,C=CCNC(C(=O)Nc1cccc(OC)c1)c1ccccc1 (stereo not drawn),9.29%
4,CC(C)(C)N1[C@@H](CC(=O)O)c2cc(C(F)(F)F)ccc2S1(=O)=O,11.2%
5,OCCCNc1ncnc2sc3c(c12)CCN(Cc1ccccc1)C3,-37.9%
6,CCc1ccc(C(C(=O)NCCOC)N(C(=O)Cn2nnc3ccccc32)c2cccnc2)cc1 (stereo not drawn),-12.2%
7,CCC(=O)N1CCN(c2ccccc2NC(=O)COc2ccccc2Cl)CC1,-42.2%
8,CC1CCCN(CCOCCOc2ccccc2-c2ccccc2)C1.O=C(O)C(=O)O (stereo not drawn),-72.9%
9,N#Cc1ccccc1NC(=O)c1ccc2c(c1)OCO2,-4.97%
10,CCCCn1c(-c2c(Cl)c(C)nn2C)n[nH]c1=S,5.7%
11,O=C(O)CCCn1cc(NC(=O)COc2ccc([N+](=O)[O-])cc2)cn1,2.66%
12,Cc1ccc(/C=C/c2ccc(=O)n(Cc3ccc(Cl)cc3Cl)n2)cc1,-2.81%
13,Cc1nn(C)c(C)c1S(=O)(=O)N(CC(=O)N1CCc2ccccc2C1)c1ccc(C(C)C)cc1,-34.4%
14,N=c1c2c3c(sc2ncn1CCCN1CCOCC1)CCCCC3,-51.2%
15,Cc1nn(-c2ccccc2)c(C)c1-c1nnc(-c2c(C)nn(-c3ccccc3)c2C)o1,9.56%
16,N#CC(C(=O)CCN1C(=O)C2CC=CCC2C1=O)c1nc2ccccc2[nH]1 (stereo not drawn),7.24%
17,Cc1ccc(C(=O)O/N=C2\CCSc3ccc(C)cc32)cc1,-0.571%
18,CCN(CC)c1ccc(/C=C(\C#N)c2ccccn2)cc1,-5.69%
19,Cn1c(NC(=O)CCC2CCCCC2)cc(=O)n(C)c1=O,-11.4%
20,CC(CN1CCCC1)OC(=O)c1cccc(F)c1.Cl (stereo not drawn),7.11%
21,CNS(=O)(=O)c1cnccc1N1CCN(c2cccc(Cl)c2)CC1,-27.5%
